In a collection of fitness landscapes (doi:10.1016/j.celrep.2020.107928):
Whole data set: some 81,000 sequences, median “one-hybrid fitness for binding parS DNA” near -0.17, cut for the highest 2% near 0.51. The list shows a part of the results.

B1: Caulobacter ParB omega fusion; a variant is named by its letters at X, in order, B8GW30 (parent)
chain: MESVVVGEPGMSEGRRGLGRGLSALLGEVDAAPAQAPGEQLGGSREAPIEILQRNPDQPRRTFREEDLEDLSNSIREKGVLQPILVRPSPDTAGEYQIVAGERAWRAAQRAGLKTVPIMVRELDDLAVLEIGIIENVQRADLNVLEEALSYKVLMEKFERTQENIAQTIGKSXSHVANXMRLLXLPDEVQSYLVSGELTAXHARAIAAAADPVALAKQIIEGGLSVRETEALARKAPNLSAGKSKGGRPPRVKDTDTQALESDLSSVLGLDVSIDHRGSTGTLTITYATLEQLDDLCNRLTRGI

Variants of: B1
Assay: one-hybrid fitness for binding parS DNA (scaled: cognate 1, non-cognate 0); higher = stronger binding
Details: with parS DNA site
Method in brief: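 Values were rescaled so that cognate is 1 and non-cognate is 0. Each is a fitness, the log change in a variant's read ratio to wild type from Illumina reads of plasmids before and after selection, with three replicate libraries pooled and variants under 10 reads dropped. Selection of the Caulobacter ParB libraries, four specificity codons randomised, used E. coli USO with a HIS3 reporter, site 19 bp from the promoter, on M9-minus-histidine with 0.1 mM IPTG and 5 mM 3-AT for 48 hours at 37°C.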

Variant | one-hybrid fitness for binding parS DNA
AENK | ≤ 0.2
NRPN | ≤ 0.2
FKQT | ≤ 0.2
GRGF | ≤ 0.2
MYLV | ≤ 0.2
GSGF | ≤ 0.2
PESN | ≤ 0.2
RIQN | 0.449
PHSD | ≤ 0.2
VYAG | ≤ 0.2
VAGV | ≤ 0.2
NKNR | ≤ 0.2
AYLF | ≤ 0.2
ICVR | ≤ 0.2
FLDG | ≤ 0.2
AIPP | ≤ 0.2
SPTG | ≤ 0.2
PIKC | ≤ 0.2
WRSQ | ≤ 0.2
AIGC | ≤ 0.2
KQPF | ≤ 0.2
DRRS | ≤ 0.2
GYHC | ≤ 0.2
TSFT | ≤ 0.2
NTMV | ≤ 0.2

Variant | one-hybrid fitness for binding parS DNA
KHLS | ≤ 0.2
YHAC | ≤ 0.2
SVPT | ≤ 0.2
GMHS | ≤ 0.2
NPEE | ≤ 0.2
CTFG | ≤ 0.2
NCAG | ≤ 0.2
RVLE | ≤ 0.2
GRMT | ≤ 0.2
DLTI | ≤ 0.2
THYL | ≤ 0.2
VTEG | ≤ 0.2
EDQT | ≤ 0.2
NPQC | ≤ 0.2
QKRD | ≤ 0.2
TIIK | ≤ 0.2
VPPP | ≤ 0.2
TCIM | ≤ 0.2
VNTW | ≤ 0.2
CVLS | ≤ 0.2
LSYG | ≤ 0.2
TQPM | ≤ 0.2
NLGP | ≤ 0.2
ALVS | ≤ 0.2
CFSA | ≤ 0.2

Variant | one-hybrid fitness for binding parS DNA
ALNV | ≤ 0.2
KWQA | ≤ 0.2
CSKC | ≤ 0.2
SVVR | ≤ 0.2
WVRY | ≤ 0.2
SHWG | ≤ 0.2
QITR | ≤ 0.2
GKTT | ≤ 0.2
RQGA | 0.563
QMKI | ≤ 0.2
AEYG | ≤ 0.2
NVGL | ≤ 0.2
ALIG | ≤ 0.2
FGIR | ≤ 0.2
RCTF | 0.223
WMAW | ≤ 0.2
MLTT | ≤ 0.2
FTYK | ≤ 0.2
THSM | ≤ 0.2
VADT | ≤ 0.2
YMTG | ≤ 0.2
VLGA | ≤ 0.2
FHSG | ≤ 0.2
ACVS | ≤ 0.2
LPLF | ≤ 0.2

Variant | one-hybrid fitness for binding parS DNA
GSIR | ≤ 0.2
PGHV | ≤ 0.2
PGTY | ≤ 0.2
DQPC | ≤ 0.2
YTVL | ≤ 0.2
CLAG | ≤ 0.2
PIPV | ≤ 0.2
KPDT | ≤ 0.2
THMG | ≤ 0.2
ERLV | ≤ 0.2
CICC | ≤ 0.2
LAHC | ≤ 0.2
YMHS | ≤ 0.2
HNSL | ≤ 0.2
CRVH | ≤ 0.2
EMYT | ≤ 0.2
KRNH | ≤ 0.2
IKKG | ≤ 0.2
GALR | ≤ 0.2
PRRW | ≤ 0.2
SKTI | ≤ 0.2
LAMV | ≤ 0.2
SNAA | ≤ 0.2
EQSV | ≤ 0.2
NNWM | ≤ 0.2

Variant | one-hybrid fitness for binding parS DNA
IQLG | ≤ 0.2
NLST | ≤ 0.2
GHLP | ≤ 0.2
QQEA | ≤ 0.2
LLER | ≤ 0.2
RALM | 0.34
KAPI | ≤ 0.2
RQMI | ≤ 0.2
STRW | ≤ 0.2
TVRT | ≤ 0.2
AMTL | ≤ 0.2
SFWT | ≤ 0.2
PHMC | ≤ 0.2
YYRQ | ≤ 0.2
NHQV | ≤ 0.2
FRDR | ≤ 0.2
HCKS | ≤ 0.2
YTTS | ≤ 0.2
WSHI | ≤ 0.2
FGES | ≤ 0.2
DSMW | ≤ 0.2
ESGS | ≤ 0.2
KWSG | ≤ 0.2
FTDR | ≤ 0.2
TPRC | ≤ 0.2

Variant | one-hybrid fitness for binding parS DNA
HKPK | ≤ 0.2
RDRC | ≤ 0.2
CDHC | ≤ 0.2
KLTG | ≤ 0.2
AVPM | ≤ 0.2
HTWS | ≤ 0.2
GMII | ≤ 0.2
ELFS | ≤ 0.2
NCIY | ≤ 0.2
AGIY | ≤ 0.2
TPPL | ≤ 0.2
LYEY | ≤ 0.2
YSVD | ≤ 0.2
NRNM | ≤ 0.2
AIRK | ≤ 0.2
IDHA | ≤ 0.2
CATC | ≤ 0.2
GKDV | ≤ 0.2
TPRD | ≤ 0.2
LIID | ≤ 0.2
LLQK | ≤ 0.2
TGLF | ≤ 0.2
QPNV | ≤ 0.2
RWNR | ≤ 0.2
TRRN | ≤ 0.2

Variant | one-hybrid fitness for binding parS DNA
CARW | ≤ 0.2
RVYT | 0.93
GNQS | ≤ 0.2
STKT | ≤ 0.2
LLLV | ≤ 0.2
FYYI | ≤ 0.2
HFQG | ≤ 0.2
VYQD | ≤ 0.2
PAEK | ≤ 0.2
QSIP | ≤ 0.2
YKNV | ≤ 0.2
CIAG | ≤ 0.2
THGK | ≤ 0.2
RTSH | ≤ 0.2
DSPQ | ≤ 0.2
TIAC | ≤ 0.2
RIIH | 0.233
VTKE | ≤ 0.2
CGAG | ≤ 0.2
PRQP | ≤ 0.2
WNWT | ≤ 0.2
DYSL | ≤ 0.2
TKHI | ≤ 0.2
LPRQ | ≤ 0.2
ILRV | ≤ 0.2

Variant | one-hybrid fitness for binding parS DNA
LGHM | ≤ 0.2
LYKY | ≤ 0.2
VCKH | ≤ 0.2
ELMS | ≤ 0.2
KRQN | ≤ 0.2
SWSD | ≤ 0.2
GNKW | ≤ 0.2
ATPK | ≤ 0.2
DRWG | ≤ 0.2
LNQG | ≤ 0.2
KSVL | ≤ 0.2
LRSF | ≤ 0.2
HRGC | 0.315
ITKL | ≤ 0.2
CHPQ | ≤ 0.2
ACGD | ≤ 0.2
KSTI | ≤ 0.2
RLQM | 0.352
EPLD | ≤ 0.2
VTGW | ≤ 0.2
